Two molecules from patent publication US20170058282A1 (priority 2015, published 2017) can be followed below.

Experiment [1] concerns the target T1, Lactococcus lactis heme-responsive transcription factor HrtR, SEQ ID NO: 1 (in E. coli MG1655, HrtR+ChuA+PL(HrtO)-luxCDABE) (Lactococcus cremoris, UniProt A2RIY0).
T1 sequence (A2RIY0 1-189): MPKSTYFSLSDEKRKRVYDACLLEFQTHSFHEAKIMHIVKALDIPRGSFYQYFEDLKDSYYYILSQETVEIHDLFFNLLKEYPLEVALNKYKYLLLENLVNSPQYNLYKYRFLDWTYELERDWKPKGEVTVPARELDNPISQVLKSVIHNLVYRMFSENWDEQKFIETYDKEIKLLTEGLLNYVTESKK
The experiment can be described thus: Hemin response of E. coli MG1655 with HrtR+ChuA+PL(HrtO)-luxCDABE (luminescence). The experiment is classed as cell-based.

For experiment [2], the target named is T2, Lactococcus lactis heme-responsive transcription factor HrtR, SEQ ID NO: 1 (in E. coli MG1655 gene circuit PL(HrtO)-luxCDABE-hrtR-chuA) (Lactococcus cremoris, UniProt A2RIY0).
T2 sequence (A2RIY0 1-189): T1 sequence (A2RIY0 1-189)
Put plainly: Hemin response of E. coli MG1655 with PL(HrtO)-luxCDABE-hrtR-chuA gene circuits carrying different RBSs for HrtR (luminescence, Hill fit). Format: cell-based.

`C=CC1=C(C)c2cc3[nH]c(cc4nc(cc5[nH]c(cc1n2)c(C)c5CCC(=O)O)C(CCC(=O)O)=C4C)c(C)c3C=C.[Fe+2]` [heme]: the response concentration range result in experiment [1] (with ChuA) is recorded as “sub-micromolar range”.
Take `C=CC1=C(C)c2cc3[nH]c(cc4nc(cc5[nH]c(cc1n2)c(C)c5CCC(=O)O)C(CCC(=O)O)=C4C)c(C)c3C=C.[Fe+3]` [hemin]: the “time to detectable differences in luminescence” value in experiment [1] (depending on the concentration of hemin used) lay within 30 to 60 min. In addition, the “Hill coefficient (Hill)” value in experiment [2] (HrtR RBS1 (SEQ ID NO: 17)) was 1.9; in experiment [2] (HrtR RBS2 (SEQ ID NO: 18)), 1.7; in experiment [2] (HrtR RBS3 (SEQ ID NO: 19)), 2.7.
